# Hit rate of the full screen: of about 45,000 compounds, about 200 (0.44%) were called active. Inconclusive results (about 7%) are left out. Calls come from the whole dose curve; as a rule, active = well fitted activation curve with a large enough effect; inconclusive = small, poorly fitted or top-dose-only effect; inactive = no such curve, though single readings can be large or run the other way. The list shows a part of the results. Peptide text beside a SMILES is read from it. * marks the point of attachment. Boc = CC(C)(C)OC(=O)*
# Assay: qHTS of TDP-43 Inhibitors: NCGC Sytravon Library Screen; note: 0% is about no effect; nearly all actives have a fitted effect of over 55% in size
# Details: yeast TDP-43 toxicity rescue, BacTiter-Glo growth, 24 h; series mostly up to 46.1 µM; growth rescue (activation): at the top concentration
# Method in brief: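 TDP-43-expressing yeast, pregrown in raffinose, seeded at OD600 0.02 in galactose medium with compound for 24 hr at 30 deg C. Growth read by BacTiter-Glo luminescence, so rescue of toxicity appears as activation.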
row,Compound,growth rescue (activation)
1,O=C(NCc1ccccc1Cl)c1csc([C@H]2C[C@H](O)[C@@H](CO)O2)n1,inactive: 11.8%
2,Cc1noc(C)c1C(=O)N1CCC1(C)C(=O)NS(=O)(=O)c1ccc(Br)cc1 (stereo not given),inactive: 9.26%
3,CC(Oc1ccc(Cl)cc1Cl)C(=O)Nc1cccc(O)c1 (stereo not given),inactive: 4.24%
4,Cc1cc(N2CCCC2=O)ccc1S(=O)(=O)NCCOc1ccccc1,inactive: 4.06%
5,COc1ccc(-c2nnc3c4ccccc4c(-c4ccccc4)nn23)cc1,inactive: 10.4%
6,COc1cc(/C=C2\N=C(c3c(-c4ccccc4)noc3C)OC2=O)ccc1OC(C)=O,inactive: 2.92%
7,Cc1ccc(NC(=O)Cn2c(-c3ccc(F)cc3)cnc2SCC(=O)Nc2c(C)cccc2C)cc1,inactive: -20%
8,CCSc1nnc(NC(=O)CCNC(=O)c2ccccc2Cl)s1,inactive: -4.34%
9,CSc1ccc(CN2C(=O)C(C)Sc3ccc(C(C)=O)cc32)cc1 (stereo not given),inactive: 19.2%
10,O=C(CN(C(=O)c1csnn1)c1ccc(F)c(Cl)c1)NC1CCCC1,inactive: 0.327%
11,CC(=O)c1cccc(NC(=O)c2ccc(C)o2)c1,inactive: -15.2%
12,Cc1ccccc1-c1cc2nc(NCc3cccnc3)n(C)c(=O)c2s1,inactive: -0.363%
13,CCN1CCN(c2cc(C)c3cc(NC(=O)c4cncc(Br)c4)ccc3n2)CC1,inactive: 2.91%
14,CCOc1ccc(Nc2nc(N)nc(CN3CCN(c4ccccc4F)CC3)n2)cc1,inactive: -3.36%
15,Cc1ccc(NC(=O)CCNC(=O)Cn2cnc3ccccc3c2=O)cc1F,inactive: 11.1%
16,O=c1[nH][nH]c(-c2ccccc2)c1C=Nc1ccccc1,inactive: 13.8%
17,N#Cc1cccc(NC(=O)C2SC(=Nc3ccccc3)C(C(=O)N3CCOCC3)=C2N)c1 (stereo not given),inactive: 7.56%
18,Cc1ccn2c(c1)nc(=S)n2C(=O)c1ccccc1,inactive: -1.29%
19,CCOc1nonc1C(=N)/C(C(C)=O)=C(\C)O,inactive: 9.43%
20,CC(C)Oc1cc(F)ccc1-c1cc(C(=O)Nc2ccc(C(C)C)cc2)[nH]n1,inactive: 7.02%
21,COc1cc(/C=N/Nc2ccccc2)ccc1O,inactive: 2.14%
22,Cc1c(NS(=O)(=O)c2cc(C(=O)N3CCCC(C)C3)ccc2Cl)c(=O)n(-c2ccccc2)n1C (stereo not given),inactive: 9.07%
23,c1ccc2oc(NC3=NCN(C4CCCCC4)CN3)nc2c1,inactive: 6%
24,O=C(CNC(=O)c1cccnc1)N/N=C/c1ccc(O)cc1O,inactive: 8.9%
25,COc1ccc(S(=O)(=O)N(C)CC(=O)NCC2CCCO2)cc1OC (stereo not given),inactive: -1.1%
26,CC(C)(C)c1cnnn1-c1cccc([N+](=O)[O-])c1,inactive: -7.55%
27,O=C(NCc1cccc(F)c1)c1cccc(OC2CCN(C(=O)C3CC3)CC2)c1,inactive: 15.5%

row,Compound,growth rescue (activation)
1,O=c1c2cccnc2[nH]c(=S)n1CCCN1CCN(c2ccccc2F)CC1,inactive: 6.56%
2,Cc1ccc(S(=O)(=O)NC(=NCC(=O)O)c2ccccc2)cc1,inactive: -26.1%
3,C=CCn1c(Cc2ccccc2)nnc1SCc1nc2ccccc2c(=O)[nH]1,inactive: -13.8%
4,Cc1nc2ccc(NC(=O)c3ccc(=O)[nH]c3)cc2s1,inactive: -3.28%
5,COC(=O)c1cc(NS(=O)(=O)c2ccc(Cl)c(N3C(=O)c4ccc(C(=O)O)cc4C3=O)c2)cc(C(=O)OC)c1,inactive: 10.1%
6,CC(C)CCNC(=O)c1nn(Cc2ccccc2)c(=O)c2ccccc12,inactive: -8.84%
7,COc1cc(-c2nnc(CSc3nnc(N)s3)o2)cc(OC)c1OC,inactive: 4.84%
8,COc1ccc(CNC(=O)Cn2nnc(-c3ccc(NC(=O)C4CCCCC4)cc3)n2)cc1,inactive: 14.1%
9,CC(C)NC(=O)c1ccc2c(c1)N(Cc1ccccc1)C(=O)C(C)(C)O2,inactive: -5.25%
10,COc1cc(/C=C/C(=O)OCC(=O)NC(=O)NCc2ccccc2)ccc1OCC#N,inactive: -8.33%
11,CC1CCC2(CC1)NC(=O)N(CC(=O)NCCc1ccccc1)C2=O (stereo not given),inactive: -4.56%
12,O=C(C1=NN[C@@H]2C(=O)N(c3ccccc3C(F)(F)F)C(=O)[C@H]12)C(c1ccccc1)c1ccccc1,inactive: 3.87%
13,O=C(CSc1n[nH]c(-c2ccco2)n1)Nc1ccccc1Cl,inactive: -0.456%
14,CN(CC(=O)NNC(=O)c1cccnc1)S(=O)(=O)c1cc(Cl)ccc1Cl,inactive: -4.59%
15,CCCCCCCCCS(=O)(=O)Nc1cc(C)ccn1,inactive: 18.2%
16,CC(=O)Nc1ccc(OCCC[n+]2cccc(C(=O)[O-])c2)cc1,inactive: 0.54%
17,CN(C)c1ccc(/C=C(\NC(=O)c2ccccc2)C(=O)NCc2ccncc2)cc1,inactive: -6.45%
18,Cc1ccc(C)n1-n1c(C)nc2scc(-c3cccs3)c2c1=O,inactive: 22%
19,COc1ccc(NC(=O)C2CC(=O)N/C(=N/N=C/c3ccccc3)S2)cc1 (stereo not given),inactive: -19.6%
20,c1ccc2sc(NN=C3CCCCCC3)nc2c1,inactive: 11.8%
21,CC1(C(=O)NCC2CC2)CCN1C(=O)C/C=C/c1ccccc1 (stereo not given),inactive: 4.87%
22,CN(C)c1ccc(-c2ccnc3c2CC(C)(C(=O)Nc2cccc(C(F)(F)F)c2)O3)cc1 (stereo not given),inactive: -3.11%
23,Cc1cc(C)n2nc(C(F)(F)F)c(-c3ccccc3)c2n1,inactive: 1.11%
24,O=C(COC(=O)Cc1ccc(F)cc1)Nc1cc(S(=O)(=O)N2CCOCC2)ccc1N1CCCC1,inactive: 0.29%
25,O=C(COc1ccccc1[N+](=O)[O-])Nc1cccc(S(=O)(=O)N2CCCC2)c1,inactive: 6.89%
26,Cc1cc(C2C(C#N)=C(N)OC3=C2C(=O)CC(C)(C)C3)c(C)s1 (stereo not given),inactive: 23.2%
27,COCCCNS(=O)(=O)c1ccc(SC)cc1,inactive: -2.45%

row,Compound,growth rescue (activation)
1,Cn1c2ccccc2c(=O)c2c(=O)n(-c3ccccc3)c(C3CCCCC3)nc21,inactive: -3.16%
2,COc1ccc(-n2c3c(cc(C(=O)NNc4ccccc4C)c2=O)C(=O)CC(C)(C)C3)cc1,inactive: 7.23%
3,CC1CCCC(NC(=O)CSc2ccc(F)cc2)C1C (stereo not given),inactive: 8.59%
4,Cc1ccccc1C(=O)NCC(=O)O,inactive: -5.53%
5,Cc1cc(NC(=O)c2ccc3c(c2)C(=O)N(C(C)(C)C)C3=O)no1,inactive: -12%
6,O=C(NNC(=O)C12CC3CC(CC(C3)C1)C2)c1ccncc1,inactive: 7.36%
7,CN(C)c1ccnc(-n2cccc2/C=N/O)c1C#N,inactive: 7.04%
8,COc1ccc(C(=O)NC2CCN(C(=O)NCc3ccccc3)CC2)cc1,inactive: -6.21%
9,CCOC(=O)C(Cc1ccc(O)cc1)NC(=O)CNC(=O)C1CCCN1C(=O)OC(C)(C)C (stereo not drawn) (Boc-Pro-Gly-Tyr-OEt; configuration not given here),inactive: -33.1%
10,CCOC(=O)/C(C#N)=N/Nc1c(C)n(C)n(-c2ccccc2)c1=O,inactive: -3.46%
11,CC(C)(CN1CCCC1)NS(=O)(=O)c1ccc(Cl)cc1,inactive: -0.184%
12,CCOc1cc(N2CCOCC2)c(OCC)cc1NC(C)C(=O)N1CCC(C)CC1 (stereo not given),inactive: -3.39%
13,CC(C)(CCl)C(=O)Nc1ccc(OC(F)(F)F)cc1,inactive: 2.3%
14,COc1ccc(C2/C(=C(/O)c3ccc(F)cc3)C(=O)C(=O)N2c2ccccn2)cc1OC (stereo not given),inactive: -5.38%
15,COc1cc(-c2cc(NC=O)c3ncc(-c4ccc(F)cc4)n3c2)cc(OC)c1OC,inactive: -2.81%
16,Cc1nnc(N2C(=O)C(O)=C(C(=O)c3ccco3)C2c2cccc3ccccc23)s1 (stereo not given),inactive: 17.1%
17,COc1ccc(/C=C/C2=NN(C)C(=O)CC2)cc1,inactive: 1.84%
18,COc1ccc(NC(=O)COC(=O)CNC(=O)C2CCCCC2)cc1OC,inactive: 14.1%
19,Cc1cc(NC(=O)C2(C)CCN2C(C)C)c2ccccc2n1 (stereo not given),inactive: -9.21%
20,Cc1ccc(C(C(=O)NCc2ccc(F)cc2)N(Cc2ccco2)C(=O)c2snc(C(N)=O)c2N)o1 (stereo not given),inactive: 21.6%
21,c1coc(C2=Nc3cccc4cccc(c34)N2)c1,inactive: -24.1%
22,CCCCn1c(-c2cccnc2)n[nH]c1=S,inactive: 20.8%
23,OC(c1ccccc1)c1ncc(-c2ccc(C(F)(F)F)cc2)[nH]1 (stereo not given),inactive: 8.29%
24,CC1CCN(C(=O)CSc2nc(C3CC3)nc3ccccc23)CC1,inactive: 19.7%
25,CCN(CC)c1ccc(CNC(=O)C/C(C)=N/NC(=O)COc2ccc(C)cc2Br)cc1,inactive: -6.63%
26,COc1ccc(C(=O)OCC(=O)NC2CCCC2)cc1OC,inactive: 0.142%
27,OC(CN1CCCCC1)Cn1c2ccccc2c2cc(Br)ccc21 (stereo not given),inactive: -13.8%

row,Compound,growth rescue (activation)
1,O=C(CC1S/C(=N/N=C/c2c[nH]c3ccccc23)NC1=O)Nc1ccccc1 (stereo not given),inactive: 8.47%
2,Cc1ncoc1C(=O)N1CCCC(CCC(=O)NCc2ccccc2F)C1 (stereo not given),inactive: -2.64%
3,O=C(/C=C/c1ccco1)NC(=S)N1CCCCC1,inactive: 2.45%
4,Cc1ccccc1C(=O)OCC(=O)N(C)c1ccccc1,inactive: 13.1%
5,O=C(Nc1ccccc1)N1C(=O)C2(OCCO2)c2ccccc21,inactive: 10.6%
6,O=C(CN1C(=O)c2ccccc2S1(=O)=O)NC(Nc1ccccc1F)C(Cl)(Cl)Cl (stereo not given),inactive: -17.2%
7,COc1ccc(C(c2nnnn2C2CCCC2)N2CCN(C(=O)c3ccco3)CC2)cc1OC (stereo not given),inactive: 1.19%
8,CCOC1=C/C(=C/c2c(N)n3nc(S(=O)(=O)CC)sc3nc2=O)C=CC1=O,inactive: -0.469%
9,Cc1cc(NN)nc2ccc(Cl)cc12,inactive: 3.96%
10,O=c1cc(CN2CCN(c3cccc(Cl)c3)CC2)c2cc(O)c(-c3ccccc3)cc2o1,inactive: 5.18%
11,COc1ccc(NC(=O)c2cc(-c3ccccc3O)n[nH]2)cc1Cl,inactive: -8.87%
12,COCCNC(=O)CCc1c(C)nc2c(c(C)nn2-c2ccc(C)cc2)c1C,inactive: 26.9%
13,COc1ccc(OC)c(C2=Nn3c(nnc3-c3cc(C)[nH]n3)SC2)c1,inactive: 11.4%
14,O=C(Nc1nncs1)c1cc(-c2ccncc2)nc2ccc(Cl)cc12,inactive: 10.2%
15,COc1ccc(CCNC(=O)COc2ccc(S(=O)(=O)NC3CCCCC3)cc2Cl)cc1OC,inactive: 12%
16,Cc1cccc(N(C(=O)c2snc(C(N)=O)c2N)C(C(=O)NC2CCCC2)c2ccco2)c1 (stereo not given),inactive: 2.01%
17,CN(C(=O)c1cccc(COc2ccc(Cl)cc2Cl)c1)c1ccccc1,inactive: 22.1%
18,O=C(O)C#Cc1cccc2ccccc12,inactive: -2.91%
19,COc1cccc(CN(CC(=O)NC2CCCC2)C(=O)CCC(=O)Nc2cc(C)on2)c1,inactive: 26%
20,CNC(=O)NC(=O)COC(=O)c1ccc(-n2c(C)ccc2C)cc1,inactive: 19.2%
21,CCOC(=O)CC1C(=O)NCCN1S(=O)(=O)c1ccc(OC)cc1 (stereo not given),inactive: 6.17%
22,O=S(=O)(Nc1ccc(F)cc1)c1ccc(NS(=O)(=O)c2cccs2)cc1,inactive: 4.33%
23,Cc1ccc(C(NC(=O)c2ccccc2S(C)(=O)=O)c2ccccc2)cc1 (stereo not given),inactive: 5.55%
24,CCN(Cc1ccccc1)C(=O)CSc1n[nH]c(N)n1,inactive: 3.87%

# — PubChem BioAssay AID1347073 (National Center for Advancing Translational Sciences (NCATS), 2019)
